# Results taken from the supplement of paper PMC10126150.
# Sequences with one replicate were seen in a single cluster, so their values are uncertain.
# System: ATP
# Assay: switch fluorescence ratio, 500 uM ATP over buffer (Cy3 cluster intensity, sum of 5 cycles each) (fold (ratio)); higher = stronger signal-on switching upon ATP binding; sequences stand for … in TCGTCGGCAGCGTCAGATGTGTATAAGAGACAGTTTTTTTTTTTTTTTTTTTTTTTTT…TC
# Details: aptamer strand: ATP DNA aptamer (quencher-CACCTGGGGGAGTATTGCGGAGGAAGG + anchor), 100 nM annealed; ATP concentration: 500 uM; one replicate
# Summary of the method: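 For every switch-domain sequence, the fluorescence ratio is the mean of per-cluster values, each being summed target-cycle Cy3 intensity over summed buffer-cycle Cy3 intensity. Clusters outside 100-1000 RFU were excluded. On a modified Illumina MiSeq flow-cell, the Cy3-labelled switching-strand clusters were annealed to 100 nM quencher-labelled ATP aptamer, imaged in selection buffer and then after 15 min with 500 uM ATP at 22 °C. Five such cycles were run, with NaOH stripping and re-annealing between them.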
# 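Note: ATP exposure 15 min at 22 °C before imaging.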
row,Sequence,switch fluorescence ratio
1,GACAAGTGAC,1.21
2,GACAATAGAC,3.98
3,GACAATCACT,1.14
4,GACAATTCCT,1.08
5,GACACAATTC,3.05
6,GACACACCTT,1.32
7,GACACATCGC,1.06
8,GACACCACTT,1.3
9,GACACGAAGG,1.01
10,GACACGCGT,0.982
11,GACACTAGGA,1.1
12,GACACTAGGC,1
13,GACACTGGAG,1.04
14,GACAGAGTAC,1.02
15,GACAGGGAGG,0.96
16,GACAGGGTAC,1.34
17,GACAGGTAGT,1.07
18,GACAGGTTCG,0.991
19,GACAGTATGT,1
20,GACAGTTAGT,1.06
21,GACATAATGG,1.01
22,GACATACGGG,1.22

row,Sequence,switch fluorescence ratio
1,GACATAGCAG,1.21
2,GACATCATCG,1.02
3,GACATCGCGA,0.975
4,GACATCTAAA,1.03
5,GACATGACC,1.16
6,GACATGGGTA,0.951
7,GACATGGTAT,1.02
8,GACATTGCTC,1.07
9,GACATTTGAG,0.984
10,GACCAAACAT,1.26
11,GACCACATAT,1.1
12,GACCAGAGGA,0.98
13,GACCATTGAA,1.01
14,GACCCGAAGC,1.97
15,GACCCTTTGT,0.996
16,GACCGACAGA,1.06
17,GACCTAGTGA,1.02
18,GACCTCGAGT,0.987
19,GACCTGAGGC,1.05
20,GACCTGTAGC,1.07
21,GACCTGTTCT,0.995
22,GACCTTAAAA,1.03

row,Sequence,switch fluorescence ratio
1,GACCTTACGC,1.47
2,GACCTTAGGC,1.03
3,GACCTTTGCA,1.14
4,GACGAAAATT,1.11
5,GACGAAACAT,1.21
6,GACGAATCGC,1.23
7,GACGAATTAT,1.01
8,GACGACCAGC,1.48
9,GACGATGGGA,1.13
10,GACGCACGGC,2.31
11,GACGCAGGA,1.29
12,GACGCATATT,3.33
13,GACGCCAACC,2.05
14,GACGCGTATC,1.88
15,GACGCGTCGA,1.01
16,GACGGAGGTT,0.966
17,GACGGCACAG,1.05
18,GACGGGCCCA,0.993
19,GACGGGCCGA,1.07
20,GACGGGTAGT,0.997
21,GACGTAAATG,1.02
22,GACGTAGTGT,0.99

row,Sequence,switch fluorescence ratio
1,GACGTCGAGA,1.02
2,GACGTCGAGC,1.05
3,GACGTCTGTA,1.02
4,GACGTGCAAA,1.13
5,GACGTGGGG,0.969
6,GACGTTCTG,1.04
7,GACGTTGGCA,1.02
8,GACTAAATAT,1.01
9,GACTAAGGAT,0.97
10,GACTAGATTG,1
11,GACTAGGGTT,0.993
12,GACTAGTGCG,1
13,GACTAGTTGA,1.05
14,GACTATACTT,1.23
15,GACTATCTTG,1.01
16,GACTATGTT,0.968
17,GACTCAACGT,1.16
18,GACTCACGTT,1.41
19,GACTCATAAA,1.03
